Measurements reported in the RNAGym collection of RNA variant scans (doi:10.7554/elife.90254).
Read counts are not given, so values of variants with three or more changes are uncertain.

B1: OR4K15 (parent)
chain: GUUAACGGUCAUAGGCCAUGGAAACUAGGAGCACCAUUUCGCUGCCAGUGAAGAAAUGAACAAAGAAAAUCUGGGCCAGGCAGGCAUCAAAAGAAAUAGUCUUGCGCUCAACCAGAAAGUCUGUAAUCAUUUUAAGGGUA

Variants of: B1
Assay: self-cleavage, relative activity (ratio to wild type); higher = more cleavage; in vitro, sequencing; the parent is a self-cleaving ribozyme

Variant	self-cleavage
U2C U19C A59G A82U U120C	0.24
G48A A63G A89G A135G	0.9
A13G U57C U87A A89G A91G U103C G104A U122C	0
G7A A56G A96G	1.65
A11G A30U U132C	0.81
A24G A60G A86G U97C A98G	1.12
U2A U12C A27G A116U	0.66
A18U A66U U70C A91U	0.47
G84A A91G A111G A117G U124C	0
A86U U127C G137A	1.81
U37C A59G A66U U122A U132A U139C	1.03
U72A A86G A110G U124A	0.03
A11U A18G U37C A52G A60G A63G A66G A90G	0.83
A51G A67U U103A U120A A126G	0.91
A52G U87C A95G A114U	0.05
A47C U122A U127A	0.91
A18U A23G U37C A126G	1.09
G1A A27G A33G A62G A67G A129G	1.28
A69G A98U A114G	0.75
U38C A47G A66G U120C	0.93
A11C A64G U87C	0.59
U70C C77U U103A	0.03
A54G U70C A96G	1.33
G14A A90G A125G	0.11

Variant	self-cleavage
U37C U49A A96G	1.8
U38C U57C A68G A89G A140G	1.54
A52G A55G A86U U102C	1.36
A23G C76U A140G	0.08
U39A U72C A94U A114G A116C	0.85
A33G A55G A63G A67G	1.12
A18G G65U A111C	0
A4G A47U A91G U132C	0.47
A91G U100C A114G	1.06
U2G U19C A64G A114U C128U	0.09
A11G G15A U19C U87C	0.4
A13G A69G U97C	0.67
A23G A89G U102C	1.31
U12A A36U A95G A118G	1.2
A5G A63G U124A	0.85
A23G A60G A78G U139C	0.16
A30G A51G A126U	0.98
A68G A86G A96G U132C	1.84
G20U A60G A96G A117G U122C	1.86
A22G A67G A92G	1.15
A90G A96G A111G U131C	0
U12C A67U G74A C105U	0.08
U12C G93A U130C	1.43
A13G A18G U39C A116G	0.88

Variant	self-cleavage
A33G U39C U72C	0.16
A51G A63G A69G	1.18
U9A A52G U57A A64U A140G	1.09
A5G A22G A59G	0.84
A82G U108C A110U	0.01
A18G A23G A52G A118G	0.83
A4G A52U A92C	1.23
G8U A60G A63G A110G	0.13
A36U A78G U124A	0.14
A60G U100A A116G	0.32
U37C A55G A78G	0.32
A4G A5U U43C	1.63
U2C C6A A117G	1.33
G21U A23C A33G A63G	1.48
U57C U87A U100C	1.42
A23U A68G A94G	1.63
U19C A62G U72C A89G A92G U131C	0.05
A23G A52G A66G U70C	0.55
C77U A91G U102A U130C	1.35
A24G U70C U122C	0.19
A27G A111G A114U	0
A18U A22G A82G A91G A92G	0.67
A96G U108C U120C G137A U139C	0
A11G A91G A96G A125G	0.56

Variant	self-cleavage
A5G A24G U43A A96G A117G	2.37
A23G A64G A78G A90G A91G	0.12
U2C A27G A30G A118G	0.18
U2A A30G A33U U38C	1.02
A23G A64G A66G A110U	0.48
U2C U38C C40A U70C A94G A117U	0.68
A51G A68U A78U	0.31
G44A U100C A110U	2.91
A23G U124C U132C	0.33
A11G C34U A96G A129G U130C	1.27
A89G U100C A118G	1.57
U2C U9C A33G U100C	1.76
A59U A63G A86U A111U	0.1
U49C U122C G136A	2.71
U39A C42U A90U A98G C105A A116U	0.01
G21A A33G A96U A114G	0.16
U2C A111G U139C	0.02
U2A A96G U127C	0.71
A5G A56G U127C	1.25
U2C C46U A95G G106A U108C	0.01
U26A A63C A68G U122A	1.17
U19C A64G G104U	0.01
G14C A47G A67G G74A A89U A126G	0.02
C17U A78G A95G U102A	0.13

Variant	self-cleavage
A5G U49C C88A	1.24
A24G U87C A91G	0.35
U9A U12C A24C A92G A111G U120C	0
A5G U9A A64G U100C	1.02
A86G G99A U103C	0.04
U9C A59C U72G G74A A89G U132C	0.2
A54U A69G A82G A110G A111G U127C	0.01
A22G A55U A92U	1.54
A22G A51G U57C A68G U72A	0.38
G8A U26C A64G	1.1
A4G A52C A60G U103C U130C	0.6
A60G U87C A118G	0.25
G28A A33C A56C U57C U72G	0.23
U72C A95G A129G	0.14
A82G U87C A126G	0.27
C6U C25A U132C A140G	1.06
U2C A60U U100C	1.3
A59G U87C A90G U97C A110U	0.09
C25A A33G A69G U87A U103A A126U	0.16
A69G A90U A96U	1.34
C101U U108C U124C U132A	0
U2C A18C A63U	1.72
C6U A11G A27G A60G	0.56
U57C A66U U87C	0.7

Variant	self-cleavage
A52G A55U A78G A91G A92G	0.03
A22G U43C U57C A82G A110U U122A A135G	0.05
A36G A96G A134C	2.45
U39A U100C U127C	1.8
G15C U70C A114U	0.02
U26C A63G A118G	0.92
A27G U72C A89G	0.05
A22G A52G A62G U102C U130C	1.18
A27G A59G U87C A111U A116G	0
A33U U38C G53U A60G	0.47
A59G A62U A64G A90G A96G	0.6
G83A A92U G106U A111U	0.01
A24C A55U U72C A117U	0.21
U39A U108G A110C U131C A135G	0.1
A24G A60U A94G U103C	1.31
U49C A54G A82U	0.03
A27G A56G U72C	0.36
U2C A68G U100C	1.88
A78G A91G U130C U133C	0.09
U43C A60G A134G	1.69
A5U A68U A126G	1.22
C40U U49C U108C	0
A5C A63G A114G A117G	0.64
A68G A86G A92U A118U	0.99

Variant	self-cleavage
A5G A24G A63G	0.71
A24G U38C U102C A118G	1.34
A52U A96U U97C A111G U122C	0
A5G A55G A59U U100C U108A A140G	0.05
A82G U120C A129G U131C	0.14
A23G A63G A64G A68U A114G	0.76
U2C A54G A125G	0.83
U2C A91U U131C	1.11
A18G U39C A68G U131C	1.07
U49C G79A U87A A126G	0.03
U2C A22G U102C	1.03
A62G A90G G99A	0.27
A36U U39A A89U A117U	1
U2C A69G A118G U130C	0.22
U38C A55G A95U U120C	0.69
A24U A63G U102C	2.14
A56C A82G A91G	0.09
C61A A64G U133A	0.5
A78G A86G A96G	0.15
A13G A23G A63G G106A	0.04
A59G C107U U108C A114U	0.02
A33G U39G A95G U130C	0.67
A33G A55G A64G	1.07
